In PMC12136788 one finds binding signal data, which are given here for six molecules.

The labels stand for the following.
T1: UNK ZnF1-3 (human, UniProt Q9C0B0 31-174)
T1 sequence: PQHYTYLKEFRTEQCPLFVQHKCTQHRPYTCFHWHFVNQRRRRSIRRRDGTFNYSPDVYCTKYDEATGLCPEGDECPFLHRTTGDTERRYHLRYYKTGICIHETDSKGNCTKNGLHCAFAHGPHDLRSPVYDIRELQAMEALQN

B1: 11615646_11615766_1029_3pUTR_ENSMUSG00000031508_ENSMUST00000169782|mouse|control|control (ssRNA)
RNA: GGGAGUUCUACAGUCCGACGAUCGAACUCAGAAAUAGUAAGCAUACUGAUUCUUGCAACGACAAGGGGUUUGCAUUGCUGAAACAGUAUAUAUCUCUAUUUCUUUAGGUCCAACAGAACUACUCUCCUGUUGCUUGGUGUCCUCAACAGAGGAUUGAGCAUCA
B2: chr6:41757443:41757444:+_ENSG00000214736_ENST00000398881|hu_mus|hu_hu_hu_mus_False|88_108 (ssRNA)
RNA: GGGAGUUCUACAGUCCGACGAUCGAACUGUCUGCUGGCAACAUCUCGGAAUUCUGCGGGGGAUGGGGGGGCAGUGGGGGGGGGUUCAGGCAAGGAGAGGGAGUCAACUUCAGCUGCCACUCAGGUAGGAUCUUGUGGUCACAGCAACAGAGGAUUGAGCAUCA
B3: chr22:32879901:32879902:+_ENSG00000100225_ENST00000397426|hu_mus|hu_hu_hu_mus_False|98_108 (ssRNA)
RNA: GGGAGUUCUACAGUCCGACGAUCCUCUGCCAUAUGCGCAUUAUCUUGAAUUGACUCAGCUUCAACAUUUUGACUAGGCCCUUCCAUACUGUCAUCAGUCCAGGCAUCAAAUGGGGUGGCCUGUCCUUGGGAUGAAUCAGUCCCCAACAGAGGAUUGAGCAUCA
B4: chr3:148802587:148802588:-_ENSG00000071794_ENST00000310053|hu_mus|hu_hu_hu_mus_False|18_98 (ssRNA)
RNA: GGGAGUUCUACAGUCCGACGAUCUCCAACAACUUGUCCUCUCAAACUUCCAAAUAAAACCAAAUCUUGCUCUUCAUCACUCGUUAGGAAGUCAUCUGGAGGAAUAAUGUCUUGGAAUUCAAAACGUGGCAAGAAAGUUGAGUACAACAGAGGAUUGAGCAUCA
B5: chr8:104433209:104433210:+_ENSG00000164934_ENST00000297579|hu_hu|motif|central (ssRNA)
RNA: GGGAGUUCUACAGUCCGACGAUCAAAGCCUUCAUGUGCUUGUAUUGUACGGAUACAAUUCCGCUGAGUUAGAUUCCAAAUUCGGACCUCUCCAUCACACGCCCCAGAAAGGACAGUAGCCAGCUUCUCUGGAUGCUUUGCCAACAACAGAGGAUUGAGCAUCA
B6: chr13:31711309:31711310:-_ENSG00000120694_ENST00000320027|hu_hu|motif|central (ssRNA)
RNA: GGGAGUUCUACAGUCCGACGAUCCAUAAAGACUACAGACUUAAGCUUUUUUUCUUUUUCCAUAUAAUACACAAAAUUUCGGAAUAUCCUUAAAAAAGAAAAUAUAAAUAGUUUCAGUAUGUUAUGUAGAGUCACAUACUAUGGCAACAGAGGAUUGAGCAUCA

This is one part of the list.

This test addresses T1, UNK ZnF1-3. The test is described as follows: nsRBNS (natural sequence RNA bind-n-seq); RBNS binding buffer (assumed for nsRBNS): 25 mM Tris pH 7.5, 150 mM KCl, 3 mM MgCl2, 0.01% Triton X-100, 500 ug/ml BSA, 20 U/ml SUPERase-In, 4 C; UNK is unkempt and MSI1 is Musashi-1; names of the RNAs are library labels; protein concentration not given here; high values mean tight binding.
Molecule B1 came in with a binding signal of 0.505 enrichment R.

In the case of B2, the binding signal was 0.948 enrichment R.

Regarding B3, the binding signal is 1.03 enrichment R.

Turning to B4, the binding signal worked out at 1.09 enrichment R.

B5 displayed a binding signal of 0.96 enrichment R.

Regarding B6, the binding signal came to 0.621 enrichment R.
